From publication PMC10239115
Results are given in words; binding and its absence hold for the method and conditions named. In cells and extracts the contact can be indirect. Some binding calls cover weakened binding; strength is not graded here. For part of these data: Sequences can lack the tags named with a protein. Blank lines part the entries; values can stand above or below the molecule they belong to.

Protein sequences, listed by entry. Tags and fused reporters are not part of them.
UniProt O14543: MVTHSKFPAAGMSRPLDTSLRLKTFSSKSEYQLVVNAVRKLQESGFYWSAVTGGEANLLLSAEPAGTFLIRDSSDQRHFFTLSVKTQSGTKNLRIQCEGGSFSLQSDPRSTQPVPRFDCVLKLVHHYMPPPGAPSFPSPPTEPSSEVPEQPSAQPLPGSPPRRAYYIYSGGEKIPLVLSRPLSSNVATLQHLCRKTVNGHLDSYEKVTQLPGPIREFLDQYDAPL
UniProt P40763: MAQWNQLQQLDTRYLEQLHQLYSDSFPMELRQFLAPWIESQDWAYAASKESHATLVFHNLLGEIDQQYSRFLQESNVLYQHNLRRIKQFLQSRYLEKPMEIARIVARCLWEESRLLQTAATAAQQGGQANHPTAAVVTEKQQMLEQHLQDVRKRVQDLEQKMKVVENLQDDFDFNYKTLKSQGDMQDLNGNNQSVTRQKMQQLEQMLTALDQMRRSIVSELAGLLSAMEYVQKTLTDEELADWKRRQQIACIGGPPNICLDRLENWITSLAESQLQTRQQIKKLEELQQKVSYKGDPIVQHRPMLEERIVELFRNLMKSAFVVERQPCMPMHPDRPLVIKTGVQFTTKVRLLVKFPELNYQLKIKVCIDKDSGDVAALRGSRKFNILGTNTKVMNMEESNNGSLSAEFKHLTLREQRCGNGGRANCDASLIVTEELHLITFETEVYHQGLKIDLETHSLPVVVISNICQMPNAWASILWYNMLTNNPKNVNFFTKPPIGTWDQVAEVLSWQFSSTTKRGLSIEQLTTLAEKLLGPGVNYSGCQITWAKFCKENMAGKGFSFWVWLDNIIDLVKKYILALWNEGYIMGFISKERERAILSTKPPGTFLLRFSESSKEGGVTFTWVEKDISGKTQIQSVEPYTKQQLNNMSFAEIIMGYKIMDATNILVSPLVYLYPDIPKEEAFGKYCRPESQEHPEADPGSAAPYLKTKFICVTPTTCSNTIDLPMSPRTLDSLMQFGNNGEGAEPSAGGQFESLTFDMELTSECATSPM

Key:
[1] = target: T1, Flag-tagged Kremen2 (Kringle containing transmembrane protein 2) (UniProt Q8NCW0); experiment: co-IP; HEK293T transfected with Flag-Krm2; lysate in IP lysis buffer incubated with protein A/G magnetic beads and anti-Flag or normal IgG overnight at 4 °C; blots for EGFR, AKT, STAT3, SOCS3
T1 sequence: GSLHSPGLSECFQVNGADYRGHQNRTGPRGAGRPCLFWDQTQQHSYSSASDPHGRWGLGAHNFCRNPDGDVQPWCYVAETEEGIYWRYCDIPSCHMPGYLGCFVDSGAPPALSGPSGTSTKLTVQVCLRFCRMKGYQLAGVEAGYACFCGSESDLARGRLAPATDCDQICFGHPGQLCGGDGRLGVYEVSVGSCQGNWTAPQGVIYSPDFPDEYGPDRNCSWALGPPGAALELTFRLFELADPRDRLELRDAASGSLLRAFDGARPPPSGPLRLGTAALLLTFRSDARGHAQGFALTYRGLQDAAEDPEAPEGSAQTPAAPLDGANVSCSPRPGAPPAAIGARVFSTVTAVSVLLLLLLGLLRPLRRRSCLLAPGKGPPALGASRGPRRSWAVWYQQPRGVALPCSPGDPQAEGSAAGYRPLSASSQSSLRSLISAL

[2] = target: suppressor of cytokine signaling 3 (SOCS3), endogenous in H1703 (human (endogenous in H1703)) (UniProt O14543); experiment: co-IP; endogenous proteins in H1703 lysate; reciprocal IP with anti-EGFR or anti-SOCS3, protein A/G magnetic beads, overnight at 4 °C
[3] = target: epidermal growth factor receptor (EGFR), endogenous in H1703 (human (endogenous in H1703)) (UniProt P00533); experiment: as above
His-tagged SOCS3 = His-tagged SOCS3 (UniProt O14543); experiment: pull-down; HEK293T co-transfected with His-SOCS3 and Flag-Krm2; lysate (150 mM NaCl, 10 mM imidazole, 0.05% Triton-100, 0.02 M Tris-HCl pH 8.0) on Ni-NTA agarose beads 2 h at 4 °C; His-SOCS3 held, blot for Kremen2

Molecule: epidermal growth factor receptor (EGFR), endogenous in HEK293T (from UniProt P00533 25-1210)
- binding [1]: no binding

Molecule: suppressor of cytokine signaling 3 (SOCS3), endogenous in H1703 (from UniProt O14543 1-225)
- binding [3]: binds

B1: Flag-tagged Kremen2 (Kringle containing transmembrane protein 2) (receptor, UniProt Q8NCW0 26-462)
chain: T1 sequence
- binding (His-tagged SOCS3): binds

Now from value to molecule:

- binding [1]: no binding
Molecule: STAT3, endogenous in HEK293T (from UniProt P40763 1-770)

- binding [2]: binds
Molecule: epidermal growth factor receptor (EGFR), endogenous in H1703 (from UniProt P00533 25-1210)

- binding [1]: binds
Molecule: suppressor of cytokine signaling 3 (SOCS3), endogenous in HEK293T (from UniProt O14543 1-225)
